# Data reported in paper PMC6919601, “Identification of Plasmodium dipeptidyl aminopeptidase allosteric inhibitors by high throughput screening” (PLoS ONE, 2019).
# Where “and” joins values, the source holds several entries; their conditions need not be identical. Identical values can stand only once. Screen size: about 110,000 compounds; about 230 (0.21%) showed an effect of 50% or more. The list shows a part of the results.
# Biological target: DPAP1 (Plasmodium falciparum, UniProt Q8IIJ9)
# Test: primary screen, percent inhibition; read by cleavage of a fluorogenic dipeptide substrate; higher = more effect of the substance
# Design: species or system P. falciparum D10 trophozoite lysates; single well
# 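Also: 30 min substrate incubation versus DMSO and 10 µM JCP410 controls.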
# DPAP1, sequence (Q8IIJ9 whole entry, looked up): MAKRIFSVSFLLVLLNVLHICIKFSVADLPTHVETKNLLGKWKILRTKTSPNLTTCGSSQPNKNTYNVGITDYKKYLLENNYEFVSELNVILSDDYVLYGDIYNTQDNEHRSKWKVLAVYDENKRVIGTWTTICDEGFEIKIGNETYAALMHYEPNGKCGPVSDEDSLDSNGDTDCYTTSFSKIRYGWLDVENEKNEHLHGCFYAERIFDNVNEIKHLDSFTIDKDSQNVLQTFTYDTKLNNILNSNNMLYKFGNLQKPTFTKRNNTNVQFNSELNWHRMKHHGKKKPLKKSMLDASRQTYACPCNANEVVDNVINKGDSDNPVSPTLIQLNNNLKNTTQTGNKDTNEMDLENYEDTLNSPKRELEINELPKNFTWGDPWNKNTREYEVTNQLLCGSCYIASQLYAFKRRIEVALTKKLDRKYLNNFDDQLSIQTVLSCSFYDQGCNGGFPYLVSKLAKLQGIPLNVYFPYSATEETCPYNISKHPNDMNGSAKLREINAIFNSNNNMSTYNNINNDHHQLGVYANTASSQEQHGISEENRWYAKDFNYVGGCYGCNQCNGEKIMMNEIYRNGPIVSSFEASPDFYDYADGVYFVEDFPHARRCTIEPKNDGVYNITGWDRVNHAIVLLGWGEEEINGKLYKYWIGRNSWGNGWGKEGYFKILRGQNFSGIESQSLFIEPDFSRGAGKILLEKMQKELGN
row,SMILES,% Inhibition @ 10 uM
1,CCOC(=O)c1cc(S(=O)(=O)NCC2CCCO2)cn1C (stereo not shown),0.655%
2,Cc1n[nH]c(C)c1CCCOc1ccc(Cl)cc1,-6.82%
3,CCN1CCN(c2nc3c(S(=O)(=O)c4ccccc4)nnn3c3ccccc23)CC1,0.49%
4,Cc1cc(Br)ccc1NC(=O)C1CC(=O)N(c2ccccc2)C1 (stereo not shown),4.11%
5,C=CCOc1ccc(C(=O)C2=C(O)C(=O)N(CCCN(C)C)C2c2ccc(OC)cc2)c(C)c1 (stereo not shown),-1.93%
6,CCn1nc(-c2cc(Br)ccc2F)nc2c(=O)n(C)c(=O)nc1-2,5.29%
7,Cc1cc(O)c(C2=Nc3ccccc3SC(c3ccsc3)C2)c(=O)o1 (stereo not shown),0.986%
8,O=C(c1sc2ccccc2c1Cl)N1CCN(Cc2ccccc2)CC1,0.51%
9,Nc1nonc1C(=O)NCCNCc1ccccc1OCc1ccccc1F,1.67%
10,COc1cc(OC)cc(-c2cc3nc(C4CCNCC4)cc(O)n3n2)c1,-1.03%
11,Cc1ccc(CNC(=O)c2ccc(Cl)cc2Cl)cc1,5.01%
12,CCc1nnc(NC(=O)c2cc(=O)c3ccc(C)cc3o2)s1,1.9%
13,CC1=C(c2ccc(C(C)C)cc2)S(=O)(=O)N=C1NC(C)C12CC3CC(CC(C3)C1)C2 (stereo not shown),5.42%
14,N#Cc1c(N)c(C(=O)c2ccccc2)n2c1CCC2,-7.25%
15,Nc1ncn(CC(O)CO)c2nc(NCCO)nc1-2 (stereo not shown),1.4%
16,O=C(O)C1C2CCC(C2)C1C(=O)NCCC1=CCCCC1 (stereo not shown),1.96%
17,COc1ccc(F)cc1S(=O)(=O)N1CCC(C(N)=O)CC1,0.108%
18,COc1cc(NC(=O)c2ccc(-c3ccccc3)cc2)c(OC)cc1Cl,-4.94%
19,COc1cccc(NC(=O)C2CC(=O)N(C)/C(=N/c3cccc(F)c3)S2)c1 (stereo not shown),1.52%
20,CCCn1c(CCCO)nc2ccccc21,3.96%
21,Nc1c2c(nc3ccn(Cc4ccccc4)c(=O)c13)CCCC2,-2.56%
22,COc1ccc(NC(=O)CN(CCc2ccccc2)S(C)(=O)=O)cc1Cl,-7.28%
23,COc1ccc(/C=C2\SC(c3ccc(C)cc3)=NC2=O)c(OC)c1OC,-1.96%
24,COc1cccc2c1Sc1ccc(Cl)cc1CC2N1CCNCC1 (stereo not shown),-4.12%
25,CCCC(=O)Nc1ccc(Cl)c(NC(=O)COc2cc(C)cc(C)c2)c1,4.44%

row,SMILES,% Inhibition @ 10 uM
1,Clc1ccc(CN2CCc3c([nH]c4ccccc34)C2)cc1,0.605%
2,CC1CCN(c2nc3c(c(=O)n(Cc4ccc(Cl)c(Cl)c4)c(=O)n3C)n2C)CC1,0.279%
3,O=c1c(NCCc2ccccc2)c(-c2ccccc2)c1=O,-5.61%
4,O=C(CCCOc1ccc(Cl)cc1Cl)Nc1ccccn1,-4.02%
5,CC(C)CC(NC(=O)c1ccc(NC(=O)N2CCN(c3ncccn3)CC2)cc1)C(=O)NCC#N (stereo not shown),-7.36%
6,CC1CCN(S(=O)(=O)c2ccc(NS(=O)(=O)c3ccccc3)cc2)CC1,-3.26%
7,O=C1NC(=O)N(c2cccc(Cl)c2)C(=O)/C1=C\Nc1ccc(S(=O)(=O)CCO)cc1,4.32%
8,CN1CCN(C(=O)CN(c2ccccc2F)S(C)(=O)=O)CC1,-0.872%
9,Cc1[nH]c(-c2ccc(F)cc2)cc1C(=O)NC1CCCCCC1,3.09%
10,O=C(Cn1ncc2ccccc21)NCCCN1CCc2ccccc2C1,4.84%
11,O=C(Nc1ccc(S(=O)(=O)N2CCc3ccccc32)cc1)C1CC1,-2.19%
12,Cn1cc(S(=O)(=O)N2CCCC2)cc1C(=O)NCc1ccc2c(c1)OCO2,2.81%
13,O=C(Cn1ncc2c3ccccc3n(Cc3ccccc3F)c2c1=O)N1CCOCC1,1.8%
14,COc1ccc(-c2nc(CSCC(=O)NCCN3CCCCC3C)c(C)o2)cc1OC (stereo not shown),-2.85%
15,CCOC(=O)N1CCN(S(=O)(=O)c2ccc(OC)c3ccccc23)CC1,2.32%
16,COc1ccc(OCC(=O)Nc2ccc(Br)cc2C(=O)O)cc1,1.96%
17,CC1CCc2nc(N)c(C#N)c(-c3ccc(Br)s3)c2C1 (stereo not shown),3.72%
18,Cc1ccc(OCCCn2ccnc2)cc1,-7.87%
19,CCCCN1CC(C(=O)NC(C)C)CC1=O (stereo not shown),-1.79%
20,CCC1CCCCN1CCCNC(=O)Cn1nc(C)c2c(C)n(-c3ccccc3)nc2c1=O (stereo not shown),-4.38%
21,O=C(Nc1sc2c(c1C(=O)Nc1ccccc1)CCC2)c1cccs1,-11.1%
22,CCCCN1C(=O)c2ccccc2C1C(=O)NC1CCCC1 (stereo not shown),2.79%
23,O=C(CC(C(=O)O)c1ccccc1)Nc1cccnc1 (stereo not shown),2.48%
24,CCOc1cc(-c2cc(N)n(S(=O)(=O)c3ccc(F)cc3)n2)cc(OCC)c1OCC,2.74%
25,COc1ccc(C2C(C#N)=C(N)OC3=C2C(=O)CC(c2ccc(C)cc2)C3)cc1 (stereo not shown),4%

row,SMILES,% Inhibition @ 10 uM
1,COc1ccc(CN2CCCCC2CO)cc1Br (stereo not shown),2.65%
2,CCN(CC)CC#CCC(O)(c1ccccc1)C1CCCCC1 (stereo not shown),2.4%
3,Clc1ccc(-c2cnc3ccccc3n2)cc1,4.57%
4,COc1ccccc1NC(=O)CSc1nc(N)c2c3c(sc2n1)COC(C(C)C)C3 (stereo not shown),-0.0938%
5,CCc1ccc(NC2Nc3cc(C)nn3S2)cc1 (stereo not shown),-4.05%
6,Cc1ccc(-n2nc3c(N4CCCC(C(=O)NCCc5cccs5)C4)nnc(C)c3c2C)cc1 (stereo not shown),3.42%
7,O=C(Nc1ccccc1C(=O)NCc1ccccc1)c1ccco1,-15.1%
8,COc1ccccc1C(O)(c1ccccc1)C(CN1CCOCC1)c1ccccc1 (stereo not shown),-0.551%
9,Cc1cccc(CNC(=O)c2ccc3c(c2)c(C)c(C)n3C)c1,-7.64%
10,O=C(O)c1nc(-c2ccccc2)cc(-c2ccccc2)n1,-5.62%
11,CCOC(=O)C1=C(CN2CCC(N3CCCCC3)CC2)NC(=O)NC1c1ccc(C)cc1 (stereo not shown),-8.28%
12,COc1ccc(C(=O)N2CCN(Cc3ccc(SC)cc3)CC2)cc1OC,4%
13,Cc1cc(C)n(-c2nnc(C)n2/N=C/c2ccc3ccccc3c2)n1,-4.51%
14,O=C(CNS(=O)(=O)c1cccs1)NC(c1ccccc1)c1ccccc1,7.57%
15,COCCN1C(=S)NC2c3ccccc3OC1(C)C2C(=O)N(C)C (stereo not shown),6.2%
16,CCOC(=O)Nc1oc2ccccc2c(=O)c1CN1CCOCC1,-5.51%
17,C=CCn1c(-c2nonc2NC(=O)CC)nc2ccccc21,1.72%
18,COc1ccccc1-c1cc(C(=O)Nc2sc3c(c2C#N)CCC3)no1,2.01%
19,COc1ccc(NC(=O)CN(c2cc(Cl)ccc2C)S(C)(=O)=O)c(OC)c1,-9.24%
20,Cc1c2cnn(CC(=O)NCCCN3C(C)CCCC3C)c(=O)c2c(C)n1Cc1ccc(F)cc1 (stereo not shown),-0.447%
21,COc1ccc(NC(=O)c2c(NC(C)=O)sc3c2CCCCC3)cc1,20.1%
22,CCN(CC)CCNC(=O)C(=O)NC(C)C(c1cccs1)N1CCN(C)CC1 (stereo not shown),5.53%
23,O=C(Nc1cccc(C(F)(F)F)c1)c1ccccc1Cl,-4.31%
24,Cc1onc(-c2ccccc2Cl)c1C(=O)Nc1nnc(C2CCCCC2)s1,-5.2%
25,CCC[C@H](NC(=O)C1(NC(=O)c2cccc(N(C)C)c2)CCCCC1)C(=O)c1nc2ccccc2o1,3.19%

row,SMILES,% Inhibition @ 10 uM
1,CS(=O)(=O)N(CC(=O)Nc1ccccc1)c1cccc(Br)c1,-9.68%
2,COc1ccc(C(=O)C2=C(O)C(=O)N(CCc3c(C)[nH]c4ccccc34)C2c2ccccc2F)cc1 (stereo not shown),2.57%
3,CC(C)OCCCNC(=O)CCc1nnc2n(CCc3ccccc3)c(=O)c3ccccc3n12,-4.21%
4,COc1ccccc1C(=O)N(Cc1ccco1)C1CCS(=O)(=O)C1 (stereo not shown),-6.5%
5,CC1(C)CC(=O)C(/C=N/c2cccnc2/N=C/C2=C(O)CC(C)(C)CC2=O)=C(O)C1,2.03%
6,COc1ccc2nc3oc(C(=O)NCCCN4CCC(Cc5ccccc5)CC4)cc3cc2c1,3.54%
7,CCc1c(C)sc(NC(=O)CCc2ccc(OC)cc2)c1C(N)=O,2.76%
8,O=C1Nc2cc(Cl)ccc2Sc2ccccc21,2.5%
9,c1ccc(OCCCCCCN2CCOCC2)cc1,-4.21%
10,COCCCNC(=O)C(C)Oc1ccc(Cl)cc1Cl (stereo not shown),4.56%
11,COc1ccc(Br)cc1CNc1ccc(O)cc1,-1.04%
12,O=C(C1CCN(c2nnc(-n3cccc3)s2)CC1)N1CCCCCC1,4.64%
13,COc1ccc(OCC(=O)Nc2ccc(Oc3ccccc3)cc2)cc1,-3.58%
14,Cc1ccc(C)n1-c1nnc(N2CCC(C(=O)NC3CCCC(C)C3C)CC2)s1 (stereo not shown),-0.522%
15,CC(=O)Nc1ccc(N/C=C(/C#N)c2nc(-c3ccc(Cl)cc3Cl)cs2)cc1,2.01%
16,O=c1oc2c3c(ccc2c2ccccc12)OCN(CCc1ccccc1F)C3,2.54%
17,CC(C)(C)c1ccc(C(=O)N(Cc2cccs2)C2CCS(=O)(=O)C2)cc1 (stereo not shown),-3.47%
18,O=C(c1ccc(C(F)(F)F)cc1)N1CCCCC1,-1.24%
19,COc1ccc(C(=O)Nc2nc(-c3nnn(-c4ccccc4F)c3C)ns2)cc1,-5.13%
20,COc1ccc(C2NC(S)=NC(C)=C2C(=O)Nc2ccc(C)cc2)cc1 (stereo not shown),2.78%
21,Cc1nn(C)c2c1c(-c1ccccc1)cc(=O)n2CC(=O)c1c(C)n(C)c2ccccc12,6.2%
22,O=C(c1nn2c(c1Cl)NC(c1cccs1)CC2C(F)(F)F)N1CCCCCC1 (stereo not shown),-1.44%
23,COc1cc2c(cc1O)CCNC2C (stereo not shown),0.968% and 5.53%
24,CC(c1ccccc1)C1CC(=O)N(c2ccc3ccccc3n2)C1=O (stereo not shown),1.42%
25,COc1ccccc1CNC(=O)CN1C(=O)C(c2ccccc2)Oc2cccnc21 (stereo not shown),-5.99%
